We go through eight molecules from patent publication US20250313638A1 (KISOJI BIOTECHNOLOGY, published 2025).

The EC50 (read off the curve) is the concentration needed to bring the measured effect to its halfway point.

The target of assay [1] is human Dopamine Receptor D2 expressed on transfected HEK293 cells (human, UniProt P14416 1-443). The assay is described as follows: cell-based or functional assay.
The target in assay [2] is T1, human CD47 on cells (HEK293T cells, human blood cells, primary human T cells) (human, UniProt Q08722).
T1 construct: Endogenous CD47 of human cells; For blood cells and T cells it is inferred from the specificity of the anti-CD47 module
Description: flow cytometry on primary human T cells. Background: In flow cytometry, cells or beads pass a laser one at a time.

In assay [3] the target is T1, human CD47 on cells (HEK293T cells, …). Description: flow cytometry on HEK293T parental and HEK293T-CD47KO cells.
The target in assay [4] is T2, recombinant human CD47 protein (human, UniProt Q08722 in part).
T2 construct: Bought (Cedarlane Cat. No. 12283-H08H-200); also called human recombinant CD47 protein; CD47 recombinant protein
Description: ELISA: recombinant human CD47 coated on the plate, chemiluminescence.

The target in assay [5] is T3, human Dopamine Receptor D2 presented on proteoliposomes (human, UniProt P14416 1-443, limits assumed).
T3 construct: also called D2 proteoliposomes; human D2 presenting proteoliposomes
Description: ELISA: D2 proteoliposomes coated on the plate, anti-human-Fc-HRP, chemiluminescence. The protocol: Plates were covered and left at 4° C. overnight. The next day, plates were washed once with PBS and blocked with blocking buffer for 1 hour at room temperature. […] After incubation, plates were washed three times with washing buffer. Plates were incubated with anti-human-Fc-HRP (Sigma-Aldrich, Cat. No. AP113P) diluted at 1:5000 for 1 hour at room temperature, then washed three times with PBS-T washing buffer. The signal was developed with SuperSignal™ ELISA Pico Chemiluminescent Substrate (Thermofisher, Cat. No. 37069). The plates were read on a SpectraMax™ i3x Multi-Mode Microplate Reader (Molecular Devices).
On the technique in general: In an ELISA, binding on a coated surface is turned into a signal by an enzyme label.

B1: KC014 (Fc fusion)
chain: QVQLLESGGGLVQPGGSLRLSCAASGDRITNKDMGWVRQAPGKGLEWVSAIAKNNGSTYYADSVKGRFTISRDNSKNTLYLQMNSLRAEDTAVYYCAGLTHRGASKFNYWGQGTLVTVSS[gap - human IgG1 Fc]
On to B1, for which, in assay [1], the “EC50, GPCR BRET assay, biosensor Gαz, first column” value was found to be 7.19 pM and the “EC50, GPCR BRET assay, biosensor Gαz, second column” value (shortened to “EC50 … second column”) was found to be 6.91 pM.

B2: KC040 (Fc fusion)
chain: QVQLQESGGGLVQAGGSLRLSCAASEIIFSITAMNWYRQAPGKQRELVAGISSSGKITYQDSVKGRFTISKDNAKNTLYLQMNSLKPEDTAVYYCNTWAGARDAIWGQGTQVTVSS[gap - human IgG1 Fc]APAPAPAPAPKADVQLVESGGGSVQAGGSLRLSCAASGSTDSIEYMTWFRQAPGKAREGVAALYTHTGNTYYTDSVKGRFTISQDKAKNMAYLRMDSVKSEDTAIYTCGATRKYVPVRFALDQSSYDYWGQGTQVTVSSGGGGSGGGGSGGGGSQVQLQESGGGLVQPGGSLRLSCAASRFDFSVNDIRWYRQAPGNERELVARITGGGRTDYADSVKGRFTISRDNAKNTVYLQMNNLKPEDTAVYYCWGRGYWGQGTQVTVSS
notes: KC001 VHH, human IgG1 hinge-CH2-CH3, rigid linker, anti-HEWL VHH, flexible linker, KC010 VHH; May comprise a His-tag or not; also called (DR2)
In the case of B2, in assay [2], the binding result is on record as “binds”.

B3: KC016 (Fc fusion)
chain: DVQLVESGGGSVQAGGSLRLSCAASGSTDSIEYMTWFRQAPGKAREGVAALYTHTGNTYYTDSVKGRFTISQDKAKNMAYLRMDSVKSEDTAIYTCGATRKYVPVRFALDQSSYDYWGQGTQVTVSS[gap - human IgG1 Fc]
notes: Anti-HEWL VHH fused with human IgG1 hinge-CH2-CH3; May comprise a His-tag or not; also called negative control
For the molecule B3, the figures for the binding result in assay [3] and in assay [4] were “no binding (tested: not printed)” and “no binding (tested: about 40 nM)”, respectively.

B4: KC011 (Fc fusion)
chain: QVQLQESGGGLAPPGGSLRLSCAASGFTFSRHAMSWVRQAPGKGLEWVSDIRSGDGGDGGTSYADSVKGRFTISRDNAKNTLYLQMNSLKPEDTAVYYCALGLWKILPSTRGRGTQVTVSS[gap - human IgG1 Fc]
In the case of B4, the “EC50 … second column” value in assay [1] worked out at 7.04 pM.

B5: KC015 (Fc fusion)
chain: QVQLQESGGGLVQPGGSLRLSCAASRFDFSVNDIRWYRQAPGNERELVARITGGGRTDYADSVKGRFTISRDNAKNTVYLQMNNLKPEDTAVYYCWGRGYWGQGTQVTVSS[gap - human IgG1 Fc]
notes: May comprise a His-tag or not
As to B5, the “EC50 (read off the curve)” value in assay [4] was about 60 pM.

B6: KC013 (Fc fusion)
chain: QVQLQESGGGLVQAGGSLRLSCAASEIIFSITAMNWYRQAPGKQRELVAGISSSGKITYQDSVKGRFTISKDNAKNTLYLQMNSLKPEDTAVYYCNTWAGARDAIWGQGTQVTVSS[gap - human IgG1 Fc]
notes: VHH KC001 fused with human IgG1 hinge-CH2-CH3; May comprise a His-tag or not
B6: in assay [1], the “EC50, GPCR BRET assay, biosensor Gαz, first column” value was found to be 6.57 pM and the “EC50 … second column” value turned out to be 6.04 pM. The “EC50 (read off the curve)” value in assay [5] was about 100 pM.

B7: KC012 (Fc fusion)
chain: QVQLQESGGGLVHPGGSLRLSCAASGLTFSQRAMSWVRQAPGKGLEWISDIKSTGETSYADSVKGRFTISRDNARNTVYLQMNSLKPEDTAVYYCALGLWKILPSVRGRGTQVTVSS[gap - human IgG1 Fc]
B7: the “EC50 … second column” value in assay [1] was determined as 7 pM.

B8: KC039 (Fc fusion)
VHH-hinge-CH2-CH3-linker-VHH-linker-VHH polypeptide chain: QVQLVESGGGSVQAGGSLRLSCAASGSTDSIEYMTWFRQAPGKAREGVAALYTHTGNTYYTDSVKGRFTISQDKAKNMAYLRMDSVKSEDTAIYTCGATRKYVPVRFALDQSSYDYWGQGTQVTVSS[gap - human IgG1 Fc]APAPAPAPAPKAQVQLVESGGGSVQAGGSLRLSCAASGSTDSIEYMTWFRQAPGKAREGVAALYTHTGNTYYTDSVKGRFTISQDKAKNMAYLRMDSVKSEDTAIYTCGATRKYVPVRFALDQSSYDYWGQGTQVTVSSGGGGSGGGGSGGGGSQVQLVESGGGSVQAGGSLRLSCAASGSTDSIEYMTWFRQAPGKAREGVAALYTHTGNTYYTDSVKGRFTISQDKAKNMAYLRMDSVKSEDTAIYTCGATRKYVPVRFALDQSSYDYWGQGTQVTVSS
notes: also called negative control; (HEWL)
As to B8, in assay [3], the binding result is “no binding (tested: not printed)”.
